From PubChem BioAssay AID686978 (National Center for Advancing Translational Sciences (NCATS), 2013)
Among all 420,000 compounds or so, about 64,000 (15%) were called active. Inconclusive means that the source gave no clear call. Such entries were picked first, then a sample of the others. Calls come from the whole dose curve; as a rule, active = well fitted inhibition curve with a large enough effect; inconclusive = small, poorly fitted or top-dose-only effect; inactive = flat fitted curve, though single readings scatter. No potency is given beside an inconclusive call; the fits are too rough.

experiment: qHTS for Inhibitors of human tyrosyl-DNA phosphodiesterase 1 (TDP1): qHTS in cells in absence of CPT; details: DT40 Tdp1-/- hTDP1 cells, no CPT, ATP luminescence, 48 h; activity change, negative = growth inhibition: at 46.2 µM (top of the series) unless noted; note: nearly all actives have a fitted effect of over 55% in size
How it was run: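 DT40 Tdp1-/-;hTDP1 cells, no CPT (DMSO vehicle only), 400 cells/well; compounds pin-transferred; ≥48 hr, 37 °C; CellTiter-Glo 30 min RT dark, luminescence read.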
% is set by controls: 0 for no effect and ±100 for the full control effect; potency is the fitted concentration of half-maximal effect; tags give direction and shape of the fitted curve.

Row | Compound | Potency | activity change, negative = growth inhibition
1 | Cc1cc(C(=O)Nc2cccc(C)c2C)c2ccccc2n1 | inconclusive [inhibitor, single point] | 
2 | O=S(=O)(c1ccccc1)N1CCN(C2CCCCCCC2)CC1 | inconclusive [inhibitor, single point] | 
3 | CCOC(=O)c1c(-c2ccccc2)oc2ccc(NS(=O)(=O)c3ccc(C)cc3C)cc12 | inconclusive [inhibitor, partial curve] | 
4 | COC(=O)C1=CN(C2CC2)C=C(C(=O)OC)C1c1ccc(C(F)(F)F)cc1 | inconclusive [inhibitor, single point] | 
5 | O=C(O)C1=NN(c2ccccc2)C(=O)CC1 |  | inactive: -2.74%
6 | CCOC(=O)Cn1c(=O)oc2cc(S(=O)(=O)NCCC(C)C)ccc21 |  | inactive: -12.1%
7 | COCCNC(=O)C1CCCN(C(=O)Cc2ccc(F)cc2)CC1 (centres undefined) |  | inactive: 20%
8 | O=C(COc1ccccc1Cl)NCCc1ccc2c(c1)OCCO2 | inconclusive [inhibitor, full curve] | 
9 | ONC(=Nc1ccccc1Cl)c1c(F)cccc1F | inconclusive [inhibitor, single point] | 
10 | O=C(C1=C[C@H](C2CCCCC2)C[C@H](OCCCCO)O1)N1CCN(Cc2ccccc2)CC1 | inconclusive [inhibitor, single point] | 
11 | O=S(=O)(c1ccccc1)c1nc(-c2cccs2)oc1SCc1ccccc1F |  | inactive: -27.5%
12 | CC(C)(C)c1ccc(OCC(O)CN2CCCC2)cc1 (centres undefined) | inconclusive [inhibitor, partial curve] | 
13 | COc1ccc(Oc2c(Cl)cnn(-c3ccc(Cl)c(Cl)c3)c2=O)cc1 | inconclusive [inhibitor, single point] | 
14 | CSc1ccc(CN(C)C(C)C(=O)NCc2ccccc2)cc1 (centres undefined) | inconclusive [inhibitor, single point] | 
15 | C=CCNC(=O)NC(=O)COC(=O)c1ccccc1Sc1ccc(C(F)(F)F)cc1[N+](=O)[O-] |  | inactive: -52.9%
16 | COC(=O)c1ccc(OCCN2C3=NCCN3c3ccccc32)cc1 | inconclusive [inhibitor, partial curve] | 
17 | Fc1cnc(Cl)nc1N1CCN(c2ccccc2)CC1 |  | inactive: -17.5%
18 | CCOC(=O)c1cn(-c2ccccc2)nc1-c1cccnc1 |  | inactive: -24.3%
19 | CC(C)c1ccc(C(C(=O)NC2CCCC2)N(C(=O)c2csnn2)C2CC2)cc1 (centres undefined) | inconclusive [inhibitor, single point] | 
20 | CN(C)c1ccc(CNC(=O)/C=C/[C@H]2O[C@@H](n3ccc(=O)[nH]c3=O)[C@H](O)[C@@H]2O)cc1 |  | inactive: -3.58%
21 | O=c1ccc2c(o1)/C(=C/C=C(Cl)Cl)CCC2 | inconclusive [inhibitor, partial curve, poor fit] | 
22 | COc1cc(/C=N/NC2=NS(=O)(=O)c3ccccc32)ccc1OC(C)=O | inconclusive [inhibitor, single point] | 
23 | O=C(N/N=C/c1ccc[nH]1)c1cc2ccccc2cc1O | inconclusive [inhibitor, single point] | 
24 | Cc1ccc(N2C(=O)[C@@H]3[C@H](C2=O)C2c4ccccc4C=CN2[C@@H]3C(=O)c2ccco2)cc1 (some centres undefined) | inconclusive [inhibitor, single point] | 
25 | COC(=O)c1ccccc1C(=O)N(c1ccccc1)c1ccccc1 | active: 14.6 µM | 

Row | Compound | Potency | activity change, negative = growth inhibition
26 | COc1ccc(Nc2ncnc3c2oc2ccccc23)cc1 |  | inactive: -24%
27 | C#CCn1cc(C=C2C(=O)c3ccccc3C2=O)c2ccccc21 | active: 20.6 µM | 
28 | Cc1ccc(Cc2c(C)c(C#N)c3[nH]c4ccccc4n3c2=O)cc1 | active: 23.1 µM | 
29 | CC(C)(C)C1CCN2CCC[C@](c3ccccc3)(C1)C2OCCCO (some centres undefined) | inconclusive [inhibitor, single point] | 
30 | c1coc(-c2ccnc3nc(-n4cccc4)nn23)c1 | inconclusive [inhibitor, single point] | 
31 | CC1CCCC(C)N1C(=O)COC(=O)c1cc(=O)[nH]c2ccccc12 (centres undefined) |  | inactive: -14.8%
32 | COc1cc(OC)cc(C(=O)NC(=S)Nc2ccc(N3CCCC3)cc2)c1 | active: 8.2 µM | 
33 | COc1cc(C2NC(=S)NC(c3ccccc3)=C2C(C)=O)cc(Br)c1OCC(N)=O (centres undefined) |  | inactive: -1.71%
34 | COc1ccc(C2Nc3ccccc3C(=O)N2c2ccccc2)cc1Cn1cc([N+](=O)[O-])cn1 (centres undefined) | inconclusive [inhibitor, single point] | 
35 | CCOc1ccc(NC(=O)CCn2cnc3onc(-c4ccc(F)cc4)c3c2=O)cc1 |  | inactive: -19.7%
36 | CC1=C(C(=O)OC(C)C)[C@@H](c2ccc(C)o2)NC(=O)N1 |  | inactive: -21.8%
37 | COC(=O)c1cc2occc2n1CC(=O)Nc1cc(OC)cc(OC)c1 |  | inactive: -2.85%
38 | CC(C)Cn1cnc2c(c1=N)C(c1ccccc1)C1=C(CC(C)(C)CC1=O)O2 (centres undefined) | inconclusive [inhibitor, single point] | 
39 | Cc1ccc(NS(=O)(=O)c2c(C(=O)N3CCC(C)CC3)c(C)n(C)c2C)cc1Cl | inconclusive [inhibitor, single point] | 
40 | CC(=O)c1ccc(NS(=O)(=O)c2ccc(N/C=C/C(=O)c3ccc(F)cc3)cc2)cc1 | inconclusive [inhibitor, single point] | 
41 | COc1cc(/C=C(\C#N)C(=O)N2CCOCC2)cc(Br)c1O | inconclusive [inhibitor, single point] | 
42 | O=C1OCC(c2ccccc2)=C1c1ccccc1 |  | inactive: -10.2%
43 | Cn1cc(-c2coc3c(C(=O)NCc4cccc(Cl)c4)cccc23)cn1 | active: 5.8 µM | 
44 | CCOC(=O)c1c(S(=O)(=O)N2CCCC(C(=O)N3CCN(c4cccc(C)c4C)CC3)C2)c(C)n(C)c1C (centres undefined) | active: 9.2 µM | 
45 | CCC(C)C(N=C1NS(=O)(=O)c2ccccc21)C(=O)N1CCC(C)CC1 (centres undefined) | inconclusive [inhibitor, partial curve, poor fit] | 
46 | CN(C)C(=O)COc1ccccc1C(=O)OCC(=O)N(CCC#N)c1ccccc1 |  | inactive: -20%
47 | Cc1ccc(N2CC(C(=O)Nc3ccc(N(C)C)cc3)CC2=O)cc1C (centres undefined) |  | inactive: 1.65%
48 | c1ccc(CSc2nnc(-c3c[nH]c4ccccc34)o2)cc1 |  | inconclusive: -33% [inhibitor]
49 | COC(=O)c1ccc(N2CCOCC2)c(NC(=O)c2ccc3c(c2)OCCO3)c1 | inconclusive [inhibitor, single point] | 
50 | CNc1ccc(Br)cc(C(=O)/C=C/c2ccc3c(c2)OCO3)c1=O | active: 18.4 µM | 

Row | Compound | Potency | activity change, negative = growth inhibition
51 | NC1=NC(=O)/C(=C\c2ccc(O)c([N+](=O)[O-])c2)S1 |  | inactive: -21.3%
52 | Cc1oc(C(C)(C)C)cc1C(=O)N1CCN(C(c2ccccc2)c2ccccc2)CC1 | inconclusive [inhibitor, single point] | 
53 | O=c1c2ccccc2nc2ccc(NCc3ccco3)nn12 | inconclusive [inhibitor, single point] | 
54 | O=C(CSc1nc2c(oc3ccccc32)c(=O)n1-c1ccccc1F)Nc1ccccc1 | inconclusive [inhibitor, single point] | 
55 | CCOc1ccc(NS(=O)(=O)c2ccc(NC(=O)C3CC3)cc2)cc1 |  | inactive: -20.8%
56 | COc1ccc(-n2c(SCc3ccc([N+](=O)[O-])cc3)nnc2-c2ccccc2)cc1 | inconclusive [inhibitor, single point] | 
57 | CN(C)c1ccc(C=Nc2ccc(/C=C3\C=Cc4ccccc43)cc2)cc1 | inconclusive [inhibitor, single point] | 
58 | Cc1[nH]c(C)c(S(=O)(=O)N2c3ccccc3CC2C)c1C(=O)N1CCCCC1 (centres undefined) |  | inactive: -0.928%
59 | COc1cc(NS(=O)(=O)c2ccc(N/C=C\C(=O)c3ccc(C)cc3)cc2)nc(OC)n1 | active: 20.6 µM | 
60 | CCN(CC(=O)NCc1ccc(Cl)cc1)C(=O)C(C)Sc1ccccc1 (centres undefined) |  | inactive: -7.77%
61 | CCOc1cc(NC(=S)NCCCOC)c(OCC)cc1NC(=O)c1ccco1 |  | inconclusive: -34.5% [inhibitor]
62 | CN(CC(=O)NC1CCCCC1)S(=O)(=O)c1ccc(Cl)cc1 |  | inconclusive: -30% [inhibitor]
63 | Cn1c(=O)c2cc(S(=O)(=O)NCCC(=O)NCCC3=CCCCC3)ccc2n(C)c1=O | inconclusive [inhibitor, partial curve] | 
64 | COc1cccc(NC(=O)CSc2nc3ccccc3c(=O)n2CCCC(=O)N2CCCC2)c1 | inconclusive [inhibitor, partial curve] | 
65 | CCCCN([C@H](CO)C(C)C)S(=O)(=O)c1ccccc1Br | active: 20.6 µM | 
66 | Cc1cc(C)c(NC(=S)N(CCN(C)C)Cc2cccs2)c(C)c1 | inconclusive [inhibitor, single point] | 
67 | O=C(Nc1ccc(-c2csc(Nc3cccc(C(F)(F)F)c3)n2)cc1)c1ccccc1 | active: 9.2 µM | 
68 | O=C(N/N=C/c1ccccn1)c1cc(-c2ccc(Br)cc2)nc2ccccc12 | active: 1.84 µM | 
69 | Cn1c(=O)[nH]c(=O)c2c1nc(Br)n2CCC(=O)c1ccccc1 | active: 16.4 µM | 
70 | CCC1CCCCN1Cc1ccc(CNC(=O)CCc2nnc3ccc(N4CCCCC4)nn23)o1 (centres undefined) |  | inactive: 21.8%
71 | N#Cc1ccccc1NC(=O)COC(=O)c1ccc2c(c1)OCO2 | inconclusive [inhibitor, partial curve] | 
72 | CC(C)CN1CCc2nc(N3CCN(C)CC3)ncc2C1 |  | inactive: -23.8%
73 | CN(CC(=O)Nc1ccc(Cl)c(Cl)c1)C(=O)C12CC3CC(CC(C3)C1)C2 | inconclusive [inhibitor, single point] | 
74 | O=C(CC(=O)NCc1ccccc1)NCc1ccccc1 |  | inactive: 0.003%
